Measurements taken from PubChem BioAssay AID360 (National Center for Advancing Translational Sciences (NCATS), 2006).
Hit rate of the full screen: of about 48,000 compounds, about 550 (1.1%) were called active. Not shown: some 4% with an inconclusive outcome. Cut-off read from the data, not from the text of the source: active = potency below about 15 µM; inconclusive = mostly about 16 µM to 33 µM; inactive = weaker than that. The list shows a part of the results.

biological target: Lysosomal acid glucosylceramidase (Homo sapiens) (UniProt P04062); test: Glucocerebrosidase; details: purified enzyme, resorufin glucoside fluorescence (screen aimed at inhibitors), 20 min; series mostly up to 77 µM;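 note: the screen sought inhibitors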
UniProt P04062, sequence (P04062 whole entry, looked up): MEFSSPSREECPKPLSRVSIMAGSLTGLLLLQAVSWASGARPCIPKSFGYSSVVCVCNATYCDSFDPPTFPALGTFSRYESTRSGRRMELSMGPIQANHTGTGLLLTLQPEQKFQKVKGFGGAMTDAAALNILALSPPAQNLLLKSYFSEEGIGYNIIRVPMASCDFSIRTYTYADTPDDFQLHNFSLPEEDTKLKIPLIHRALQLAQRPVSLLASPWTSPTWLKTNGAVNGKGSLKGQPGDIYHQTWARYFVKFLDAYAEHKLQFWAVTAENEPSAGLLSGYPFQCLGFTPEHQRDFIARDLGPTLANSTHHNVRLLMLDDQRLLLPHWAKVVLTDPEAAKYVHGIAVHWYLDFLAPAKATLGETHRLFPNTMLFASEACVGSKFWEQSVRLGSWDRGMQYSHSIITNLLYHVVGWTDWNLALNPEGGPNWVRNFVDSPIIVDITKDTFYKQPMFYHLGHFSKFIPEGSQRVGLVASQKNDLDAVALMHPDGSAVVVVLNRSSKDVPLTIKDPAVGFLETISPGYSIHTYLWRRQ
Method in brief: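 Compounds titrated against 0.2 nM normal enzyme, 30 uM resorufin beta-D-glucopyranoside substrate, citrate/phosphate buffer with taurocholate and tween-20, pH 5.9. Reaction ran 20 min at room temperature; fluorescence (Ex 548/Em 600) gave AC50.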
Potency is the fitted concentration of half-maximal effect.

Potency, inactive:
CSc1nc2ccc(NC(=O)C3CC(=O)N(Cc4ccco4)C3)cc2s1 (stereo unspecified) > 76.9 µM
CN(C)S(=O)(=O)c1ccc2c(c1)C(CC(=O)O)OC2=O (stereo unspecified) > 76.9 µM
Cc1ccccc1NS(=O)(=O)c1cc(C(=O)NCc2ccco2)ccc1C > 76.9 µM
CCN1CCN(C(=O)c2cn(CCOC)c(=O)c3c2c2ccccc2n3C)CC1 > 76.9 µM
COc1ccc(C2(CNC(=O)CCC(=O)O)CCCC2)cc1 > 76.9 µM
COc1ccc(-c2nc3nc(C)c(Cc4ccccc4)c(=O)n3[nH]2)cc1 > 76.9 µM
Cc1cc(-c2ccccc2)nn1-c1nc2c(c(=O)[nH]c(=O)n2C)n1C > 76.9 µM
N#CC(C(=O)C1CCCCC1)c1nc2ccccc2[nH]1 (stereo unspecified) > 76.9 µM
S=c1[nH]ncn1/N=C/c1ccccc1 > 76.9 µM
COc1ccc(OC)c(NC(=O)CSC2=NCCS2)c1 > 76.9 µM
C=CCn1c(SCC(=O)Nc2nnc(CC)s2)nnc1-c1ccco1 > 76.9 µM
O=C(NCC1COc2ccccc2O1)C1CCN(S(=O)(=O)c2cccc3nsnc23)CC1 (stereo unspecified) > 76.9 µM
O=S(=O)(c1ccc(Oc2ccc(Br)cc2)cc1)N1CCOCC1 > 76.9 µM
O=C1c2ccccc2NC(c2ccccn2)N1c1ccc(Cl)cc1 (stereo unspecified) > 76.9 µM
O=c1c2ccccc2nc(-c2ccccc2)n1CCCn1ccnc1 > 76.9 µM
O=C(CSc1nnnn1-c1ccc2c(c1)OCCO2)N1CCc2ccccc21 > 76.9 µM
CCOC(=O)C1CCCCN1C(=O)CCc1c(C)nc2ncnn2c1C (stereo unspecified) > 76.9 µM
Cc1cc(C(=O)CN2C(=O)C3CC=CCC3C2=O)c(C)n1-c1ccccc1 (stereo unspecified) > 76.9 µM
O=C(Nc1ccc2c(c1)CCC2)C1CCCO1 (stereo unspecified) > 76.9 µM
O=C(O)C1CCCCC1C(=O)NCCc1ccc(Cl)cc1 (stereo unspecified) > 76.9 µM
Cn1c(=O)c2c(nc(CN3CCC(C(N)=O)CC3)n2Cc2c(Cl)cccc2Cl)n(C)c1=O > 76.9 µM
CCc1nnc(NC(=O)Cn2nc(-c3ccccc3OC)ccc2=O)s1 > 76.9 µM
COCCn1c(NCc2ccc(C)cc2)nc2c1c(=O)[nH]c(=O)n2C > 76.9 µM
CCCCOc1ccccc1NC(=O)c1ccc(=O)[nH]c1 > 76.9 µM
O=C(COc1ccccc1Cl)OCC(=O)N1CCN(S(=O)(=O)c2ccccc2)CC1 > 76.9 µM
COCCn1c(CNc2ccc(F)cc2)nnc1SCC(=O)Nc1ccc(OC)cc1OC > 76.9 µM
Cc1ccc2nc(SCc3nnc(-c4cccs4)o3)[nH]c2c1 > 76.9 µM
CC(C)n1c(-c2ccco2)csc1=Nc1cccnc1 > 76.9 µM
CCOc1ccc(CNC(=O)C2CCN(S(=O)(=O)N3CCCC3)CC2)cc1OC > 76.9 µM
O=S1(=O)C=C(N2CCCCC2)c2ccccc21 > 76.9 µM
COc1ccc(C2C(C#N)=C(N)Oc3cc(C)n(Cc4ccncc4)c(=O)c32)cc1 (stereo unspecified) > 76.9 µM
CCOC(=O)C(NC(=O)N1CCCCC1)(c1ccccc1)C(F)(F)F (stereo unspecified) > 76.9 µM
COc1ccc2c(c1)c1nnc(SC)nc1n2C > 76.9 µM
CNC(=O)C1C2C=CC3(O2)C1C(=O)N(C1CC1)C3C(=O)NCc1ccc(OC)cc1 (stereo unspecified) > 76.9 µM
CCCS(=O)(=O)N1CCC(C(=O)NCCN2CCCC2)CC1 > 76.9 µM
CCOC(=O)C1CCCN(C(=O)c2ccc3c(c2)NC(=O)C(N2CCOCC2)S3)C1 (stereo unspecified) > 76.9 µM
COCCn1c(N)c(C(=O)NCc2cccs2)c2nc3ccccc3nc21 > 76.9 µM
CC1CN(Cc2nc3c(c(=O)[nH]c(=O)n3C)n2CCN2CCOCC2)CC(C)O1 (stereo unspecified) > 76.9 µM
CCCn1c(SCC(=O)Nc2ccc3c(c2)OCCO3)nnc1-c1ccco1 > 76.9 µM
O=C(CN(Cc1ccccc1F)C(=O)Cn1nnc(-c2cccs2)n1)NCC1CCCO1 (stereo unspecified) > 76.9 µM
CCCCC(=O)NC(Nc1nc(C2CC2)cs1)(C(=O)OCC)C(F)(F)F (stereo unspecified) > 76.9 µM
COc1cc(OC)cc(-c2nnc(SCC(=O)Nc3cc(C)on3)o2)c1 > 76.9 µM
Cc1cc(C)nc(SCc2nc3ccccc3n2C)n1 > 76.9 µM
C=CCN1C(=O)/C(=C2/Sc3ccccc3N2CCCS(=O)(=O)O)SC1=S > 76.9 µM
CCCCN=c1sc(C(=O)OC)cc(=O)n1CCCC > 76.9 µM
CCOc1cc(C(=O)N2CCCC2)cc(OCC)c1OCC > 76.9 µM
O=c1[nH]c(N2CCOCC2)nc2ncn(Cc3ccccc3)c12 > 76.9 µM
CCCc1[nH]nc2c1C(c1cc(OC)ccc1F)C(C#N)=C(N)O2 (stereo unspecified) > 76.9 µM
N#Cc1cn(-c2ccccc2)nc1-c1ccccc1 > 76.9 µM
CC(=Nc1ccc2c(c1)nc(CO)n2C)C1=C(O)CC(C)(C)CC1=O
CCCOC(=O)Nc1cc(OC)c(Cl)cc1OC > 76.9 µM
O=C1CC(N2CCN(CCc3ccccn3)CC2)C(=O)N1c1ccc(Cl)cc1 (stereo unspecified) > 76.9 µM
Cc1cc2c(=O)n(CC(=O)N3CCN(c4ccc(F)cc4)CC3)cnc2s1 > 76.9 µM
O=S(=O)(c1ccc(N2CCOCC2)cc1)N1CCOCC1 > 76.9 µM
N#C/C=C\Oc1ccc(Cl)cc1N > 76.9 µM
CCOC(=O)c1cnc(-n2nc(C)cc2C)nc1Nc1ccc(N(C)C)cc1 > 76.9 µM
OC(CNc1nc2ccccc2s1)c1ccccc1 (stereo unspecified) > 76.9 µM
CC(C)(C)NS(=O)(=O)c1ccc(CCC(=O)O)cc1 > 76.9 µM
Cn1cnc(S(=O)(=O)Nc2ccc(C(F)(F)F)cc2)c1 > 76.9 µM
Cc1ccc(C(=O)NC2CC3CCCC(C2)N3C(=O)NC2CCCCC2)cc1 (stereo unspecified) > 76.9 µM
Cc1noc(C)c1CSc1nc2ccccc2c(=O)n1-c1ccc(F)cc1F > 76.9 µM
CC(C)Oc1ccc(-c2nn(-c3ccccc3)cc2/C=c2\sc3ncnn3c2=O)cc1 > 76.9 µM
Cc1cc(C(=O)Nc2nnc(-c3ccccc3)s2)no1 > 76.9 µM
CSCCC(C(=O)Nc1ccc2c(c1)OCO2)N1C(=O)c2ccccc2C1=O (stereo unspecified) > 76.9 µM
O=C(NC12CC3CC(CC(C3)C1)C2)c1ccccc1O > 76.9 µM
O=C(CC12CC3CC(C1)CC(CC(=O)NC1=NCCS1)(C3)C2)NC1=NCCS1 > 76.9 µM
CC(NC(=O)c1nn(C)c(=O)c2ccccc12)c1ccccc1 (stereo unspecified) > 76.9 µM
CCS(=O)(=O)c1nc(NC(C)=O)n[nH]1 > 76.9 µM
Cc1cc(NC(=O)c2cc(-c3ccco3)on2)nn1Cc1ccc(Cl)cc1 > 76.9 µM
Cc1ccc(-c2c3c(=O)n(C)c(=O)n(C)c3cn2N2CCOCC2)cc1 > 76.9 µM
CCN(CC)S(=O)(=O)c1cccc(-c2nnc(C(=O)c3ccc(C(F)(F)F)cc3)o2)c1 > 76.9 µM
COc1ccc2cnn(CCOc3ccccc3)c(=O)c2c1OC > 76.9 µM
CCOc1ccc(C2C(C#N)=C(N)Oc3nc[nH]c(=O)c32)cc1OC (stereo unspecified) > 76.9 µM
COC(=O)c1ccc(C(=O)OC)nc1 > 76.9 µM
CCn1c(CNc2ccc(C)cc2C)nnc1SCC(=O)N1CCCc2ccccc21 > 76.9 µM
CCOC(=O)c1c(C)nn(Cc2cccc(Cl)c2)c1N > 76.9 µM
COC(=O)Cc1c(C)c2ccc(OCC(C)=O)c(C)c2oc1=O > 76.9 µM
CCN(CC)S(=O)(=O)c1cccc(-c2nnc(SCCOc3ccccc3C)o2)c1 > 76.9 µM
CCn1nnnc1-c1ccc(OC)c(S(=O)(=O)NCc2ccccc2)c1 > 76.9 µM
CCn1cc(Br)c(C(=O)N2CCN(c3ccccc3)CC2)n1 > 76.9 µM
CN(C(=O)c1cccnc1)c1nnc(-c2cccnc2)s1 > 76.9 µM
Cc1cccnc1NC(=O)C(C)Oc1ccccc1 (stereo unspecified) > 76.9 µM
CCOC(=O)NC1(Nc2ccc(Cl)cn2)Oc2ccccc2O1 > 76.9 µM
Nn1c(SCC(=O)Nc2ccc3c(c2)OCO3)nnc1C1CCCCC1 > 76.9 µM
Cc1ccc(S(=O)(=O)NC2=NCN(Cc3cccnc3)CN2)cc1 > 76.9 µM
O=C(Nc1ccc(Cc2ccncc2)cc1)C1CC1 > 76.9 µM
Cc1ccc(Cl)c(OCC(=O)Nc2ccc3c(c2)OCCO3)c1 > 76.9 µM
CCC(c1nnnn1C1CCCC1)N(Cc1cccs1)Cc1cc2cccc(C)c2[nH]c1=O (stereo unspecified)
CCCCc1c(O)nc(SCC(=O)NCCc2ccc(OC)c(OC)c2)[nH]c1=O > 76.9 µM
CCCc1nnc(NC(=O)c2cc(OC)cc(OC)c2)s1 > 76.9 µM
COc1ccc(C(=O)Nc2nc3cc(OC)c(OC)cc3c(=O)[nH]2)cc1 > 76.9 µM
